Data: patent publication US20210130473A1, “TGFßR1 INHIBITOR-ASGR ANTIBODY CONJUGATES AND USES THEREOF” (Silverback Therapeutics, Inc., priority 2019, published 2021)
Numbering of substitutions follows the chain as printed. Names and notes keep the numbering of the source.

T1: HepG2 cells (which express ASGR1) (Homo sapiens, UniProt P07306)
T1 construct: endogenous in cells; host or cells: HepG2
T1 sequence (P07306 1-291): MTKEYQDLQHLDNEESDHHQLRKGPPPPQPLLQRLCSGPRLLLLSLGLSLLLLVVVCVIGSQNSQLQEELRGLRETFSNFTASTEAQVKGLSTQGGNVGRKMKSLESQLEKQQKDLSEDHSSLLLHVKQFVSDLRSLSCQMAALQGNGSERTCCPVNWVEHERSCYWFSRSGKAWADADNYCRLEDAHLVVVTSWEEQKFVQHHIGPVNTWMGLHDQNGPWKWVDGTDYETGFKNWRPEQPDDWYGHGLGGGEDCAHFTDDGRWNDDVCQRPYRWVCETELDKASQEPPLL

B1: G2D-C (antibody)
heavy: EVQLQQSGPELVKPGASVKISCKASGYSFTGYYMHWVKQSHVKSLEWIGRINPNNGATNYNQNFKDKASLTVDKSSSTAYMEFHSLTSEDSAVYYCTSVNFYYWGQGTTLTVSS[… human IgG1 constant region …]
light: DIKMTQSPSSMYASLGERVTITCKASQVINSYLSWFQQKPGKSPETLIYRANTLVDGVPSRFSGSGSGQDYSLTISSLEYEDLGIYYCLQYAEFPYTFGGGTKLEIKRTVAAPSVFIFPPSDEQLKSGTASVVCLLNNFYPREAKVQWKVDNALQSGNSQESVTEQDSKDSTYSLSSTLTLSKADYEKHKVYACEVTHQGLSSPVTKSFNRGEC
B2: hzG2D-14: humanized G2D clone; VL "grafted into the human germline sequence VKI-L1 with JK4 to generate hzG2D VLa (SEQ ID NO:131)" (antibody)
heavy: QVQLVQSGAEVKKPGASVKVSCKASGYSFTGYYMHWVRQAPGQRLEWMGRINPNNGATNYNQNFKDKASLTVDTSASTAYMELSSLRSEDTAVYYCARVNFYYWGQGTTLTVSS[… human IgG1 constant region …]
light: DIQMTQSPSSLSASVGDRVTITCKASQVINSYLSWFQQKPGKAPKSLIYRANTLVDGVPSRFSGSGSGTDFTLTISSLQPEDFATYYCLQYAEFPYTFGGGTKVEIKRTVAAPSVFIFPPSDEQLKSGTASVVCLLNNFYPREAKVQWKVDNALQSGNSQESVTEQDSKDSTYSLSSTLTLSKADYEKHKVYACEVTHQGLSSPVTKSFNRGEC
B3: hzG2D-16: humanized G2D clone; VL "grafted into the human germline sequence VKI-L1 with JK4 to generate hzG2D VLa (SEQ ID NO:131)" (antibody)
heavy: B2 heavy with A97T, R98S
light: B2 light
B4: hzG2D-22: humanized G2D clone; VL "grafted into the human germline sequence VKI-O2 with JK4 to generate hzG2D VLb (SEQ ID NO:247)" (antibody)
heavy: B2 heavy with S28T, L110V
light: B2 light with F36Y, S46L
B5: hzG2D-23: humanized G2D clone; VL "grafted into the human germline sequence VKI-O2 with JK4 to generate hzG2D VLb (SEQ ID NO:247)" (antibody)
heavy: B2 heavy with S28T, A97T, R98S, L110V
light: B2 light with F36Y, S46L
B6: hzG2D-15: humanized G2D clone; VL "grafted into the human germline sequence VKI-L1 with JK4 to generate hzG2D VLa (SEQ ID NO:131)" (antibody)
heavy: B2 heavy with S28T, A97T, R98S
light: B2 light
B7: hzG2D-21: humanized G2D clone; VL "grafted into the human germline sequence VKI-L1 with JK4 to generate hzG2D VLa (SEQ ID NO:131)" (antibody)
heavy: B2 heavy with S28T, A97T, R98S, L110V
light: B2 light

molecular target: T1, HepG2 cells (which express ASGR1); assay: Guava HepG2 cell binding screen of anti-ASGR1 mAbs; conditions: humanized G2D clones; two numbers per cell, their meaning is not given
Procedure: Additionally, hybridomas producing monoclonal antibodies (mAbs) specific for human ASGR1 were prepared from Balb/C mice immunized with ASGR1-AviHis at a service provider using their propriety protocol. Antibody heavy and light chain sequences were obtained, amplified, and cloned. Clone supernatants containing the expressed mAbs were screened for binding to a human ASGR1-IgG1Fc fusion protein, and those with a positive signal as measured by enzyme linked immunosorbent assay (ELISA) were screened for cell binding on HepG2 cells (which express ASGR1). […] The isolated mAbs were further analyzed for the additional characteristics including, for example, titer, low aggregate content following protein A purification, high titer, lack of cross-blocking of ligand GalNac, calcium sensitivity, and cross-reactivity with rat ASGR1 protein.

| Guava HepG2 Screen | Molecule |
| --- | --- |
| 187/145 | B1 |
| 37/16 | B2 |
| 165/108 | B3 |
| None | B4 |
| 198/131 | B5 |
| 172/119 | B6 |
| 199/127 | B7 |
